The text below walks through data of paper PMC11564117, “Control of mitophagy initiation and progression by the TBK1 adaptors NAP1 and SINTBAD” (Nature Structural & Molecular Biology, 2024).

Holding throughout (details): both partners purified
Assay [1] addresses T1, Linear tetra-ubiquitin fused to GST (GST–4×Ub) (UniProt P0CG48 partial chain; P0CG48 partial chain; P0CG48 partial chain; P0CG48 partial chain).
T1 construct: ubiquitin, unit 1 of 4 of linear tetra-ubiquitin, units joined head to tail; ubiquitin, unit 2 of 4 of linear tetra-ubiquitin; ubiquitin, unit 3 of 4 of linear tetra-ubiquitin; ubiquitin, unit 4 of 4 of linear tetra-ubiquitin; Cloned into pGEX-4T1; held on glutathione beads by its GST; also called GST-tagged linear ubiquitin chains; linear 4× ubiquitin; source: E. coli Rosetta pLysS, purified …
The assay can be described thus: microscopy-based bead assay; Figs. 5b, 7d, 7f, Extended Data Fig. 9b: GST–4×Ub on glutathione beads; OPTN (mCherry-tagged or unlabeled) and GFP–TBK1 250 nM; NAP1, MBP–NAP1 or SINTBAD–mCherry 100 nM to 10 µM; unlabeled NDP52 250 nM where indicated; 25 mM Tris-HCl pH 7.4, 150 mM NaCl, 1 mM DTT; Fig. 5b without ATP, Fig. 7f with or without ATP/MgCl2; 30 min; confocal imaging.

Assay [2] concerns the target T2, GFP–TBK1 (wild type) (UniProt Q9UHD2 1-729).
T2 construct: TBK1, gene-synthesized codon-optimized GST–TEV–EGFP–TBK1 in pFastBac-Dual; also called EGFP–TBK1 WT; EGFP-tagged TBK1; source: Sf9 insect cells, purified (GST-batch protocol); not shown: EGFP, N-terminal, kept
T2 sequence (looked up): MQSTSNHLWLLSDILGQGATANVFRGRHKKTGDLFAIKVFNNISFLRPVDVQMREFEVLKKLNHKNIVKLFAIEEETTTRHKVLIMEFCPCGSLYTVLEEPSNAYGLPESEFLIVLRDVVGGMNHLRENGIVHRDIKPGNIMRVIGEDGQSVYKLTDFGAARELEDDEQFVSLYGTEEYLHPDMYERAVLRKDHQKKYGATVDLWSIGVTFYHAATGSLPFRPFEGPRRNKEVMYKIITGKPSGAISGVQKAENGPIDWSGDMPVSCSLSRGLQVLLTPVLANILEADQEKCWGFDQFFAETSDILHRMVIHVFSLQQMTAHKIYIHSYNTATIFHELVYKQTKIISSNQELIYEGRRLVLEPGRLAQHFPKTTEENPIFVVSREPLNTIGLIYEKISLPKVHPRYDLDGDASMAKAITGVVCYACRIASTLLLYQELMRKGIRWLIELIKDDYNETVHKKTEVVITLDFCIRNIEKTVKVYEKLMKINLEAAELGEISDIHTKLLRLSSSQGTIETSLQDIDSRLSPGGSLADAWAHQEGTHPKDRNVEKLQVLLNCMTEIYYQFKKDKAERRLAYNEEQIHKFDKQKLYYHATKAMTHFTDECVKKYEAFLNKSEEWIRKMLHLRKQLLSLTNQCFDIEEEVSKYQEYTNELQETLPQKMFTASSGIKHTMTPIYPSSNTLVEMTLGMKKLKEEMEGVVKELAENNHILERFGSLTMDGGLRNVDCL
In words: pull-down; Extended Data Fig. 5, Fig. 7e: GFP–TBK1 pre-loaded on GFP-Trap agarose beads; mCherry–OPTN 1 µM, mCherry–NDP52 1 µM, NAP1 1–10 µM; 25 mM Tris-HCl pH 7.4, 150 mM NaCl, 1 mM DTT; 1 h at 4 °C; SDS–PAGE and Coomassie staining.

The target of assay [3] is T2, GFP–TBK1 (wild type). The assay can be described thus: microscopy-based bead assay; Figs. 5b, 7d, 7f, Extended Data Fig. 9b: GST–4×Ub on glutathione beads; OPTN (mCherry-tagged or unlabeled) and GFP–TBK1 250 nM; NAP1, MBP–NAP1 or SINTBAD–mCherry 100 nM to 10 µM; unlabeled NDP52 250 nM where indicated; 25 mM Tris-HCl pH 7.4, 150 mM NaCl, 1 mM DTT; Fig. 5b without ATP, Fig. 7f with or without ATP/MgCl2; 30 min; confocal imaging.

The target of assay [4] is T2, GFP–TBK1 (wild type). The assay can be described thus: microscopy-based bead assay; Fig. 6e, Extended Data Fig. 10: GST, OPTN-GST or GST–NAP1 on glutathione beads; EGFP–TBK1 WT, KD or E696K 250 nM; 25 mM Tris-HCl pH 7.4, 150 mM NaCl, 1 mM DTT; 30 min; Extended Data Fig. 10 with and without ATP/MgCl2 (interaction weakened with ATP/MgCl2); confocal imaging.

T1 sequence (P0CG48 1-304): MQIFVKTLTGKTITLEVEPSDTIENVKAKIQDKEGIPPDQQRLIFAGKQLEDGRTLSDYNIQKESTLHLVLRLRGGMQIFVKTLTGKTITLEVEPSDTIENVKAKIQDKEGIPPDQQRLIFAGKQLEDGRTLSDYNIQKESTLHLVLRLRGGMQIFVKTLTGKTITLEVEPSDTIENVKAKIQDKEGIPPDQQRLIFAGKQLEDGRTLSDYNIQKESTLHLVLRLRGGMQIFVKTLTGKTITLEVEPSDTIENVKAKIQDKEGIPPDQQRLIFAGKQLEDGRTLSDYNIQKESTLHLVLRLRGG

B1: mCherry–OPTN (natural protein)
chain: not shown
notes: OPTN (optineurin), human cDNA in pETDuet-1 as 6×His-TEV–mCherry–OPTN; also called mCherry-tagged OPTN; optineurin; source: E. coli Rosetta pLysS, purified (His-Trap, TEV, SEC); not shown: His6, N-terminal, cleaved; mCherry, N-terminal, kept
On to B1, for which the binding result in assay [1] and in assay [2] was “binds” throughout.

B2: OPTN (unlabeled) (natural protein)
chain: not shown
notes: OPTN (optineurin); also called unlabeled OPTN
For B2, the binding result in assay [1] and in assay [3] was “binds” each time.

B3: OPTN-GST (natural protein)
chain: not shown
notes: OPTN (optineurin), human cDNA in pETDuet-1 with a carboxy-terminal GST-tag; the only GST-tagged OPTN of the methods is OPTN-GST; also called GST–OPTN; source: E. coli Rosetta pLysS, purified (GST-batch protocol); not shown: GST, C-terminal, kept
Consider B3, for which the binding result in assay [4] is reported as “binds”.

B4: MBP–NAP1 delta-NDP52 (S37K/A44E) (natural protein)
chain: not shown
notes: NAP1 (AZI2), human cDNA, gene-synthesized, with an N-terminal MBP-tag followed by a TEV cleavage site; S37K and A44E; source: E. coli Rosetta pLysS, purified (amylose beads, SEC); not shown: MBP, N-terminal, kept
For B4, the binding result in assay [3] is recorded as “binds”.
